The values that follow come from the RNAGym collection of RNA variant scans (doi:10.1093/nar/gkz1192).

B1: CPEB3 Ribozyme (parent)
chain: UAACAGGGGGCCACAGCAGAAGCGUUCACGUCGCAGCCCCUGUCAGAUUCUGGUGAAUCUGCGAAUUCUGCUGUAUAUCUC

The source gives no read counts; variants with many changes may rest on few reads.

In the data set the parent is B1. Nature of the data set: self-cleavage, relative activity (ratio to wild type); higher = more cleavage; in vitro, sequencing. The gist of the method: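 After error-prone PCR and barcoding, CPEB3 ribozyme mutant libraries were transcribed with T7 RNA polymerase at 37°C for 5 hours, then given 15 min with DNase I before an EDTA stop, and they cleaved during both steps. Reverse transcription with template switching preceded Illumina sequencing. Relative activity divides a variant's cleaved/total read fraction by the unmutated ribozyme's. At least 5 reads were required per variant, and three batches were averaged.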
Regarding UAACAGGGGGCCACAGCAGAAGCGUUCACGUCGCAGUCCCCGUCAGAUUCUGGUGGACCUGCGAAUUCUGCUGUAUAUCUC, the self-cleavage was found to be 0.11.

In the case of UAACAGGGGGCCACAGCAGAAGCGUUCACGUCGCACCCCCUGUCAGAUUCCAGUGUAUCUGCGAAUUCUGCUGUAUAUCUC, the self-cleavage was 0.08. Take UAACAGGGGGCCACAGCAGAAGCGUUCACGUCGCAGUGCCUGUCAGAUCCAGGUGAAUCUGCGAAUUCUGCUGUAUAUCUC: the self-cleavage came out at 0.13.

Take UAACAGGGGGCCACAGCAGAAGCGUUCACGUCGCAACCCCAGUCAGAUUCUGGUGAAUCUGCGAAUUCUGCUGUGUAUCUC: the self-cleavage turned out to be 0.08.

On to UAACAGGGGGCCACAGCAGAAGCGUUCACGUCGCAGUCCCUGUCAGGUUCUGGUGAAUCUGCUAAUUCUGCUGUAUAUCUC, for which the self-cleavage stood at 0.65.

Turning to UAACAGGGGGCCACAGCAGAAGCGUUCACGUCGCAGUCCCUGUCAGAUUCUAGUGAAUCUGCGAAUUCUGCUGUAUCUCUC, the self-cleavage was determined as 0.54.

As for UAACAGGGGGCCACAGCAGAAGCGUUCACGUCGCAGACCCUGCCAGAUUCUGGUGGAUCUGCGUAUUCUGCUGUAUAUCUC, the self-cleavage worked out at 0.09.

With UAACAGGGGGCCACAGCAGAAGCGUUCACGUCGCAUCCCCUGCCAGAUACUGGUGAAUCUGCGAAUUCUGCUGAAUACCUC, the self-cleavage amounted to 0.07. For the variant UAACAGGGGGCCACAGCAGAAGCGUUCACGUCGCAACCCCUGUCAGAUUCUGGUGAAUCCGCGAACUCUGCCGUAUAUCUC, the self-cleavage was found to be 0.06.

For UAACAGGGGGCCACAGCAGAAGCGUUCACGUCGCAGUCCCUGUCAGAUUCUGGUGAAUCUGCGGAUUCCGCUGUAUAUCUC, the self-cleavage was found to be 0.36.

In the case of UAACAGGGGGCCACAGCAGAAGCGUUCACGUCGCAGUCCCCCUCAGAUUCUGGUGAAUCUGCGUAUUCUGCUGUAUAUCUC, the self-cleavage was 0.19.

With UAACAGGGGGCCACAGCAGAAGCGUUCACGUCGCACCCCCUGUCAGAUUCUGGUGAAUCAGCGAAUCCUGCUGAAUAUCUC, the self-cleavage is 0.13. The same measure for UAACAGGGGGCCACAGCAGAAGCGUUCACGUCGCAGUCCCUGUCGGAUUCUGAUGAAUCUGCGAAUUCUGCAGUAUAUCUC: 0.24. With UAACAGGGGGCCACAGCAGAAGCGUUCACGUCGCAUCCCCUGUCAGUUUAUGGUGAAUCUGCGGACUCUGCUGUAUAUCUC, the self-cleavage was 0.12. In the case of UAACAGGGGGCCACAGCAGAAGCGUUCACGUCGCAACCCCUGUCAGAUUCUGGUGAAUCUGCGAAUUCUGCUGCAUAUCCC, the self-cleavage was determined as 0.2. The same measure for UAACAGGGGGCCACAGCAGAAGCGUUCACGUCGCAACCCCUGUCAGAUUCUGGUGAACCUGCGAAUUCUGCUGUACAUCCC: 0.12. With UAACAGGGGGCCACAGCAGAAGCGUUCACGUCGCAGACCCUGUCAGAUUCUGGUGAAUCUGCGAAUUCUGCUGCAAAUCUC, the self-cleavage was determined as 0.4. The same measure for UAACAGGGGGCCACAGCAGAAGCGUUCACGUCGCAACCCCUGUCAGAUCCCGGUGGAUCUGCGAAUUCUGCUGUGUAUCUC: 0.07; for UAACAGGGGGCCACAGCAGAAGCGUUCACGUCGCAGUCCCUGUCGGAUUCUGGUGAAUCUGCGGAUUCUGCUGUAUAUCUC: 0.3; for UAACAGGGGGCCACAGCAGAAGCGUUCACGUCGCAUCCCCUGUCAGAUUCUGGUGAAUCUGCGGGUUCUGCUGUAUAUCUC: 0.32. As for UAACAGGGGGCCACAGCAGAAGCGUUCACGUCGCAGUCCCUGUCGGAUUCUGGUGAAUCCGCGCAUUCUGCUGUAUAUUUC, the figure is 0.04; as for UAACAGGGGGCCACAGCAGAAGCGUUCACGUCGCAACCCCUGUCAGAUUCUGAUGAAUCUGCGAAUUCUGCUGUUUAUCUC, 0.21. The same measure for UAACAGGGGGCCACAGCAGAAGCGUUCACGUCGCAACCCCUGUCAGAUUCUGGUGAAUCUGCGAAUUCUGCAGUACAUCUC: 0.1. As for UAACAGGGGGCCACAGCAGAAGCGUUCACGUCGCAGACCCUGACUGAUUCUGGUGUACCUGCGAAUCCUGCCGUAUAUCUC, the self-cleavage was 0.05. The same measure for UAACAGGGGGCCACAGCAGAAGCGUUCACGUCGCAUCCCCUGUCAGAUUCUGGUGUAUCAGCGAGUUCUGCUGUAUAUCUC: 0.08. For the variant UAACAGGGGGCCACAGCAGAAGCGUUCACGUCGCAUCCCCUGUCAGAUUCUGGUGAAUCUGUGUAUUCUGCUGUAUAUCUC, the self-cleavage came to 0.15. Take UAACAGGGGGCCACAGCAGAAGCGUUCACGUCGCAACUCCUGUCAGAUUCUGGUGAAUCUGCGAAUUCUGCUGCAUAUCUC: the self-cleavage was found to be 0.15. As for UAACAGGGGGCCACAGCAGAAGCGUUCACGUCGCAGGCCCUGUCAGAUACAGGCGAAUCUGCGAAUUCUGCUGUAUAUCCC, the figure is 0.13. UAACAGGGGGCCACAGCAGAAGCGUUCACGUCGCAGACCCUGCCAGAUUCUGGUGAAUCCGCGAAUUCUGCUGUAUAUCUC: the self-cleavage is 0.18. The same measure for UAACAGGGGGCCACAGCAGAAGCGUUCACGUCGCAACCCCUGUCAGAUUCAGGUGAAUCUGCGAAUUCUGCUGUACAUCUC: 0.22; for UAACAGGGGGCCACAGCAGAAGCGUUCACGUCGCAGGCCCUGUCGGGUUCUGGUGAAUCUGCGAAUUCUGCUGUAUAUCUC: 0.19.

Regarding UAACAGGGGGCCACAGCAGAAGCGUUCACGUCGCAACCCCUGUCAGAUUCUGGUGAAUCUGCGAAAUCUGCUGUACAUCUC, the self-cleavage turned out to be 0.09.

On to UAACAGGGGGCCACAGCAGAAGCGUUCACGUCGCAGGCCCUGUCAGGUUCAGGUGAAUCUGCGAAUUCUGCUGUAUACCUC, for which the self-cleavage is 0.13. On to UAACAGGGGGCCACAGCAGAAGCGUUCACGUCGCAACCCCUGUCAGAUUCCGGUGAAUCAGCGAACUCUGCUGUAUAUCUC, for which the self-cleavage came to 0.29.
